Measured values reported in PubChem BioAssay AID1347428 (National Center for Advancing Translational Sciences (NCATS), 2020).
Among all 91,000 compounds or so, about 290 (0.32%) were called active. Inconclusive results, whose numbers are uncertain, are shown with a selection of clear calls. The call rests on the fitted dose curve; in most records, active means well fitted inhibition curve with a large enough effect; inconclusive means small, poorly fitted or top-dose-only effect; inactive means no such curve, though single readings can be large or run the other way. Potencies of inconclusive entries are doubtful fits and often do not repeat.

biological target: Single-stranded DNA cytosine deaminase (Homo sapiens) (UniProt Q9GZX7); test: Primary qHTS assay for inhibitors of Activation Induced Cytidine Deaminase (AID): AID signal; details: AID deamination FRET fluorescence, UDG-coupled, 4 h; series mostly up to 115 µM; further: nearly all actives have a fitted effect of over 25% in size
Potency means the concentration at half of the fitted maximal effect; tags describe the fitted curve by direction and shape.

Sequence of UniProt Q9GZX7 (Q9GZX7 whole entry, looked up): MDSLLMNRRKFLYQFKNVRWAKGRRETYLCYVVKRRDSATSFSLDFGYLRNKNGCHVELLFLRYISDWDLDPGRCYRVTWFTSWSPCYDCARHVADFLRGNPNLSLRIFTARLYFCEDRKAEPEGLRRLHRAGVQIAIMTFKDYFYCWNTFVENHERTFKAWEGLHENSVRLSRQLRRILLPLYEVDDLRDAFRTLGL

Row | SMILES | Potency
1 | COc1ccc(N(Cc2cccs2)C(=O)c2ccc(Br)o2)cc1 | inconclusive: 25.1 µM [inhibitor, full curve, poor fit]
2 | CCCCN(CCCC)CCNC(=O)c1cn(CC)c2ccc(S(=O)(=O)N3CCc4ccccc4C3)cc2c1=O | active: 28.2 µM
3 | N#Cc1ccccc1OCc1ccccc1 | inactive
4 | O=C(/C=C/c1cccc(C(F)(F)F)c1)c1cc(Cl)ccc1Cl | inactive
5 | Cc1ccc(Cl)cc1NC(=O)CN1C(=O)c2cccc3cccc1c23 | inconclusive: 89.1 µM [inhibitor, single point]
6 | CC(=O)Nc1ccc(CC(=O)Nc2cccc3cccnc23)cc1 | inconclusive: 89.1 µM [inhibitor, partial curve, poor fit]
7 | CCOc1ccccc1OC(=O)c1ccc(F)cc1Cl | inactive
8 | FC(F)(F)c1cc(Cl)c2n[nH]c(=S)n2c1 | inactive
9 | COc1ccc(OC)c(C2NC(=O)NC(C)=C2C(=O)Nc2cc(C)cc(C)c2)c1 (stereo not drawn) | inconclusive: 79.4 µM [inhibitor, partial curve, poor fit]
10 | Cc1cccc(C(=O)NC2CC2)c1C | inactive
11 | Cc1c(C(=O)N(Cc2ccc(N(C)C)cc2)C2CCS(=O)(=O)C2)oc2ccccc12 (stereo not drawn) | inconclusive: 50.1 µM [inhibitor, partial curve, poor fit]
12 | CCC/C=N/NC(=O)c1ccc(C)cc1C | inactive
13 | COc1ccc2c(CNCc3ccc(C)o3)c(C(=O)O)n(Cc3ccccc3C)c2c1 | inactive
14 | O=C(OC1CCOC1=O)c1ccc([N+](=O)[O-])cc1Cl (stereo not drawn) | inactive
15 | Clc1cccc(CSc2nncn3c2cc2sccc23)c1 | inconclusive: 89.1 µM [inhibitor, single point]
16 | COc1ccc(Cn2nnc3c(=O)[nH]c(C4CCCN(C(=O)c5ccc(C)cc5)C4)nc32)cc1 (stereo not drawn) | inconclusive: 79.4 µM [inhibitor, single point]
17 | COc1ccc(CCNC(=O)Cn2c(=O)n(-c3ccc(C)c(C)c3)c(=O)c3c(C)c(C)sc32)cc1OC | inconclusive: 79.4 µM [inhibitor, partial curve, poor fit]
18 | Cc1ccccc1-c1nc(CS(=O)CC(=O)N2CCN(c3cc(Cl)ccc3C)CC2)c(C)o1 (stereo not drawn) | inconclusive: 56.2 µM [inhibitor, partial curve, poor fit]
19 | CCc1ccc(Nc2ncnc3c2cnn3-c2cccc(C)c2)cc1 | inactive
20 | Cc1ccc(C(=O)/C=C/c2ccc3oc4ccccc4c3c2)cc1 | inactive
21 | Cc1cccc(-n2c(SCc3nc(-c4ccccc4C)no3)nnc2-c2ccccc2)c1 | inactive
22 | Cn1cc(/C=C/C(=O)N2CCCC(C(F)(F)F)C2)c(=O)n(C)c1=O (stereo not drawn) | inactive
23 | Cc1[nH]c2ccccc2c1C(c1ccccc1)c1cccs1 (stereo not drawn) | inconclusive: 35.5 µM [inhibitor, full curve, poor fit]

Row | SMILES | Potency
24 | Cc1cc(C(F)(F)F)nn1-c1nc(-c2ccccc2)cc(C(F)(F)F)n1 | inconclusive: 17.8 µM [inhibitor, single point]
25 | Cc1ccc(NC(=O)CSc2c3c(nc4ccccc24)CCCC3)cc1F | inconclusive: 70.8 µM [inhibitor, single point]
26 | C[N+]1(C)CCNCC1 | inactive
27 | O=C(COc1ccccc1)NCc1ccc2c(c1)CCN2C(=O)c1ccccc1 | inconclusive: 39.8 µM [inhibitor, single point]
28 | CCCOc1ccc(C(=O)Nc2cccc3cccnc23)cc1 | inconclusive: 39.8 µM [inhibitor, partial curve, poor fit]
29 | Cc1cc(=O)oc2cc(OCC(=O)N(C)Cc3cccs3)c(Cl)cc12 | inactive
30 | COc1ccc(C(=O)/C(C#N)=C\c2ccc(Cl)cc2Cl)cc1 | inactive
31 | O=C(CCn1nc(-c2ccc(Cl)cc2)c2ccccc2c1=O)N1CCCCC1 | inconclusive: 56.2 µM [inhibitor, partial curve, poor fit]
32 | CC(C)C(=O)Nc1sc2c(c1-c1nc3ccccc3s1)CCN(C(C)C)C2 | inconclusive: 50.1 µM [inhibitor, partial curve, poor fit]
33 | O=C(COc1ccccc1)NCCc1csc(-c2cccc(F)c2)n1 | inactive
34 | Cc1ccc(C)c(Nc2nc(-c3ccccc3)c3cc(Br)ccc3n2)c1 | inconclusive: 35.5 µM [inhibitor, partial curve, poor fit]
35 | COc1cc(/C=C(\C#N)C(=O)C(C)(C)C)ccc1OCc1c(F)cccc1Cl | inconclusive: 35.5 µM [inhibitor, partial curve, poor fit]
36 | CCOc1ccccc1C1C(C#N)=C(N)OC2=C1S(=O)(=O)N(CC)c1ccccc12 (stereo not drawn) | inactive
37 | Cc1ccc2c(c1)N(C(=O)CCC(=O)Nc1ccc(F)cc1F)CC(C)O2 (stereo not drawn) | inconclusive: 2.82 µM [inhibitor, partial curve, poor fit]
38 | Cc1c(Cl)cccc1NC(=O)C1CCCN(C(=O)c2cnn(-c3ccccc3)c2-n2cccc2)C1 (stereo not drawn) | active: 22.4 µM
39 | O=C(CN1C(=O)COc2ccc(S(=O)(=O)N3CCOCC3)cc21)Nc1ccc(F)c(Cl)c1 | inactive
40 | Cc1ccsc1CN(Cc1ccco1)C(=O)c1ccc(Cl)cc1 | inconclusive: 35.5 µM [inhibitor, full curve, poor fit]
41 | Cc1ccc2c(CSc3nnc(NCC(C)C)s3)cc(=O)oc2c1 | inactive
42 | CCOC(=O)c1cc(-c2ccc(OC)cc2)n(CCC(=O)NCc2ccccc2OC)c1C | inconclusive: 79.4 µM [inhibitor, partial curve, poor fit]
43 | CC(C)OCCCNc1sc(S(=O)(=O)c2ccccc2)nc1S(=O)(=O)c1ccc(Cl)cc1 | inconclusive: 2.82 µM [inhibitor, full curve, poor fit]
44 | O=C1CN(S(=O)(=O)c2c(Cl)cccc2Cl)CCN1 | inactive
45 | COc1cccc(CNC(=O)c2sc3nc4n(c(=O)c3c2C)CCC4)c1 | inconclusive: 39.8 µM [inhibitor, partial curve, poor fit]
46 | Cc1c(C(=O)Nc2cccc(F)c2)oc2c1-c1nn(Cc3c(F)cccc3Cl)cc1CC2 | inconclusive: 100 µM [inhibitor, single point]

Row | SMILES | Potency
47 | O=C(C1COc2ccccc2O1)N1CCN(c2nc3c(F)cccc3s2)CC1 (stereo not drawn) | inconclusive: 6.31 µM [inhibitor, full curve, poor fit]
48 | COc1cc(/C=C(\C#N)C(=O)Nc2ccccc2C(=O)O)cc(Cl)c1OC(C)C | inconclusive: 56.2 µM [inhibitor, partial curve, poor fit]
49 | O=S(=O)(NCCc1nnc2ccc(SCc3ccc(C(F)(F)F)cc3)nn12)c1ccccc1 | inconclusive: 10 µM [inhibitor, full curve]
50 | Cc1cccc(N2CCN(CCCNc3ncnc4onc(-c5ccc(Cl)cc5)c34)CC2C)c1 (stereo not drawn) | inconclusive: 3.16 µM [inhibitor, full curve, poor fit]
51 | Cc1nc2c(-c3ccccc3)c(C)nn2c(C)c1CCC(=O)N1CCN(c2ccc(F)cc2)CC1 | inconclusive: 50.1 µM [inhibitor, partial curve, poor fit]
52 | COc1cccc(CNC(=O)CCc2c(C)nc3c(c(C)nn3-c3ccc(C)c(C)c3)c2C)c1 | inconclusive: 2.82 µM [inhibitor, full curve, poor fit]
53 | Cc1c(C(=O)OCCOc2ccccc2)[nH]c2c1C(=O)CC(c1ccccc1)C2 (stereo not drawn) | inconclusive: 39.8 µM [inhibitor, single point]
54 | Cc1cc(OCCn2cc(C(=O)c3cccs3)c3ccccc32)ccc1Cl | inconclusive: 25.1 µM [inhibitor, partial curve, poor fit]
55 | CCOc1ccccc1CNC(=O)C1CCN(C(=O)N2CC(CC)Oc3ccc(C)cc32)CC1 (stereo not drawn) | inconclusive: 56.2 µM [inhibitor, partial curve, poor fit]
56 | CCC(C)c1ccc(NC(=S)Nc2ccc(N(CC)CC)cc2)cc1 (stereo not drawn) | inactive
57 | Cc1cc(NC(=O)C(C)Sc2nc(NC3CC3)c3ccccc3n2)no1 (stereo not drawn) | inactive
58 | CCC(=O)N1CCc2cc(Br)cc(S(=O)(=O)CCC(=O)NCCc3cccc(C)c3)c21 | inconclusive: 89.1 µM [inhibitor, single point]
59 | CC(C)c1ccc(NC(=O)Cn2cc(S(=O)(=O)N3CCN(c4ccccc4F)CC3)c3ccccc3c2=O)cc1 | inconclusive: 7.94 µM [inhibitor, full curve]
60 | COc1ccc(CNC(=O)c2cnc3ccccc3n2)cc1 | inactive
61 | Cc1nn(CC(=O)N2CCC(C)CC2)c(=O)c2cc3sccc3n12 | inconclusive: 56.2 µM [inhibitor, partial curve, poor fit]
62 | CCN(C(=O)CSc1nc2ncccc2[nH]1)c1ccc(C(C)C)cc1 | inconclusive: 56.2 µM [inhibitor, partial curve, poor fit]
63 | Cc1ccc2c(=O)cc(C(=O)Nc3nc4ccc(Cl)cc4s3)oc2c1C | inconclusive: 56.2 µM [inhibitor, partial curve, poor fit]
64 | N#Cc1nc(COc2ccc(Br)cc2)oc1NCc1ccco1 | inactive
65 | CC(=O)N1c2c(cc(Br)cc2S(=O)(=O)N2CCN(c3cc(C)ccc3C)CC2)CC1C (stereo not drawn) | inconclusive: 56.2 µM [inhibitor, partial curve, poor fit]
66 | O=[N+]([O-])c1cc(S(=O)(=O)Nc2ccc(Cl)cc2)ccc1N/N=C/c1ccccc1Br | inactive
67 | COc1cc2c(cc1OC)C(COc1ccccc1OC)N(C(=O)COc1ccc(Cl)cc1)CC2 (stereo not drawn) | inconclusive: 39.8 µM [inhibitor, single point]
68 | COc1ccc(OC)c(CNC(=O)Cc2ccc(NC(=O)N3CCSc4ncccc43)cc2)c1 | inconclusive: 100 µM [inhibitor, single point]
